# Data: the supplement of paper PMC9446081
# The campaign covered roughly 39,000 compounds. About 220 (0.56%) showed activity. The list shows a part of the results.
# System: Escherichia coli K-12 BW25113
# Assay: relative growth (OD600 normalised to plate interquartile mean) (fraction); higher = less growth inhibition, active = 0.2 or less
# Conditions: 50 µM; LB; incubation time: overnight (16-24 h)
# 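Note: static incubation at 37 °C against the wild-type strain, values averaged over two biological replicates.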
row,SMILES,relative growth
1,C[C@@H]1CCCCO[C@@H](CN(C)CC2CC2)[C@H](C)CN([C@H](C)CO)C(=O)c2cc(NC(=O)Nc3ccc(C(F)(F)F)cc3)ccc2O1,inactive: 0.963
2,CC(C)(C)S(=O)N1Cc2cc(C(=O)N3CCN(Cc4ccccc4)CC3)nc(-c3cccc(-c4cc5ccccc5o4)c3)c2[C@H]1CCO (some centres not stated),inactive: 0.978
3,C[C@@H]1CN([C@@H](C)CO)C(=O)c2cc(NC(=O)Nc3ccc4c(c3)OCO4)ccc2O[C@@H](C)CCCCO[C@@H]1CN(C)Cc1ccc(C(=O)O)cc1,inactive: 1.01
4,C[C@@H]1CN([C@H](C)CO)C(=O)c2cc(NC(=O)Cc3ccccc3)ccc2O[C@@H](C)CCCCO[C@@H]1CN(C)Cc1ccc(Cl)c(Cl)c1,inactive: 1.03
5,Cc1noc(C)c1NC(=O)N(C)C[C@H]1Oc2ccc(NC(=O)Nc3cccc4ccccc34)cc2CC(=O)N([C@H](C)CO)C[C@@H]1C,inactive: 0.944
6,COS(=O)(=O)[O-].COc1cc(N)cn[n+]1-c1ccccc1,inactive: 0.987
7,COc1ccc(NC(=O)N(C)C[C@@H]2Oc3ccc(NS(=O)(=O)c4cn(C)cn4)cc3C(=O)N([C@@H](C)CO)C[C@H]2C)cc1,inactive: 1
8,O=C(c1ccncc1)N1C[C@H]2[C@@H](c3ccccc31)[C@@H](CO)N2C(=O)CN1CCOCC1,inactive: 0.98
9,C[C@H](CO)N1C[C@H](C)[C@H](CN(C)CC2CC2)Oc2ccc(NC(=O)Cn3cnnn3)cc2CC1=O,inactive: 0.999
10,C[C@H]1CN([C@@H](C)CO)C(=O)c2cc(NC(=O)c3ccncc3)ccc2O[C@H]1CN(C)Cc1ccc(C(=O)O)cc1,inactive: 0.994
11,C[C@@H]1CN([C@H](C)CO)C(=O)c2cc(NC(=O)Nc3ccc4c(c3)OCO4)ccc2O[C@@H](C)CCCCO[C@H]1CN(C)Cc1ccc(C(=O)O)cc1,inactive: 1.01
12,COc1ccc2c3c(n(c2c1)C)[C@@H](CO)N(C[C@]13CCN(CC1)C(=O)Nc1cccc(c1)F)C(=O)CN1CCOCC1,inactive: 0.995
13,CC(C)NC(=O)N(C)C[C@@H]1Oc2ccc(NS(=O)(=O)c3cccs3)cc2C(=O)N([C@H](C)CO)C[C@@H]1C,inactive: 1.02
14,C[C@@H]1CCCCO[C@H](CN(C)C(=O)Nc2ccc(F)cc2)[C@@H](C)CN([C@H](C)CO)C(=O)c2cc(NS(=O)(=O)c3ccccc3)ccc2O1,inactive: 1.02
15,COc1ccc(S(=O)(=O)N(C)C[C@@H]2Oc3ccc(NS(=O)(=O)c4ccc(F)cc4)cc3C(=O)N([C@@H](C)CO)C[C@@H]2C)cc1,inactive: 1.03
16,CCNC(=O)C[C@@H]1CC[C@H](NC(=O)C2CC2)[C@H](CO)O1,inactive: 0.974
17,COc1ccc(S(=O)(=O)N(C)C[C@H]2Oc3ccc(NS(=O)(=O)c4ccccc4)cc3CC(=O)N([C@@H](C)CO)C[C@H]2C)cc1,inactive: 0.988
18,C[C@H]1CN([C@@H](C)CO)S(=O)(=O)c2ccc(Br)cc2O[C@@H]1CN(C)C(=O)CCN1CCCCC1,inactive: 0.954
19,Nc1ccn([C@@H]2O[C@H](CO)[C@@H](O)C2(F)F)c(=O)n1,inactive: 0.958

row,SMILES,relative growth
1,Cc1nn(C)c2c1[C@@H](c1ccc(C(F)(F)F)cc1)C(C#N)C(=N)O2 (some centres not stated),inactive: 1.02
2,CN(C)CC(=O)N[C@H]1CC[C@@H](CCNS(=O)(=O)c2ccccc2)O[C@@H]1CO,inactive: 0.982
3,C[C@H](NC(=O)N(C)C[C@H]1OCc2ccccc2-c2c(n(C)c3ccccc23)C(=O)N([C@H](C)CO)C[C@H]1C)c1ccccc1,inactive: 1.02
4,Nc1ncn(Cc2ccccc2)n1,inactive: 1.02
5,C[C@@H]1CCCCO[C@H](CN(C)C(=O)NC2CCCCC2)[C@H](C)CN([C@@H](C)CO)C(=O)c2cc(NS(=O)(=O)c3ccccc3)ccc2O1,inactive: 0.985
6,O=C(N/N=C/[C@H](O)[C@@H](O)[C@@H](O)[C@H](O)C(=O)O)c1ccccc1O,inactive: 0.993
7,COc1cc(C)c(C(=O)O)c(O)c1,inactive: 0.971
8,C[C@H](CO)N1C[C@H](C)[C@@H](CN(C)C(=O)Nc2cccc(C(F)(F)F)c2)OCc2ccccc2-c2c(n(C)c3ccccc23)C1=O,inactive: 1.01
9,C[C@H]1CN([C@@H](C)CO)S(=O)(=O)c2ccc(C#CC(C)(C)O)cc2O[C@@H]1CN(C)Cc1ccncc1,inactive: 0.995
10,Cc1noc(C)c1NC(=O)Nc1ccc2c(c1)CC(=O)N([C@H](C)CO)C[C@H](C)[C@H](CN(C)C(=O)Nc1cccc3ccccc13)O2,inactive: 0.973
11,Cc1ccc(S(=O)(=O)N2C[C@@H](O)COC[C@@H]3O[C@@H](CC(=O)NCCN4CCCCC4)CC[C@H]32)cc1,inactive: 0.994
12,C[C@H](CO)N1C[C@H](C)[C@@H](CN(C)C(=O)Nc2ccc3c(c2)OCO3)Oc2ccc(NC(=O)Cn3cnnn3)cc2C1=O,inactive: 1
13,C=CCOC(=O)[C@H]1[C@@H]2C(=O)O[C@@H](c3ccccc3)[C@@H](c3ccccc3)N2[C@@H](c2ccc(OCCOC(=O)[C@@H]3C[C@@H]4C(=O)NCC(=O)N4[C@@H]3c3cccc(OCCO)c3)cc2)[C@]12C(=O)Nc1ccccc12,inactive: 1.04
14,O=C1O[C@@H](c2ccccc2)[C@@H](c2ccccc2)N2[C@@H](c3ccc(O)cc3)[C@]3(C(=O)Nc4ccc(C#CC5=CCCCC5)cc43)[C@@H](C(=O)Nc3nc4ccccc4s3)[C@H]12,inactive: 1.02
15,CCS(=O)(=O)Nc1ccc2c(c1)C(=O)N(C)[C@@H]1CC[C@H](CC(=O)N[C@@H]3CCN(Cc4ccccc4)C3)O[C@H]1CO2,inactive: 0.992
16,COc1ccc(S(=O)(=O)Nc2ccc3c(c2)C(=O)N([C@H](C)CO)C[C@H](C)[C@H](CN(C)Cc2ccccc2)OCCCC[C@H](C)O3)cc1,inactive: 1
17,Cc1c(Cl)cccc1Nc1ccccc1C(=O)O,inactive: 0.969
18,C[C@@H]1CCCCO[C@H](CN(C)Cc2ccc3c(c2)OCO3)[C@@H](C)CN([C@@H](C)CO)C(=O)c2cc(NS(=O)(=O)c3ccc(Cl)cc3)ccc2O1,inactive: 0.975
19,COc1ccccc1S(=O)(=O)N(C)C[C@@H]1OCc2cn(nn2)CCCC(=O)N([C@@H](C)CO)C[C@@H]1C,inactive: 0.984

row,SMILES,relative growth
1,CCS(=O)(=O)N1CC[C@]2(CC1)CN([C@@H](CO)c1[nH]c3cc(ccc3c12)OC)S(=O)(=O)c1ccc(cc1)C,inactive: 0.99
2,CC(C)NC(=O)N(C)C[C@@H]1Oc2ccc(NS(=O)(=O)c3ccc(F)cc3)cc2CC(=O)N([C@H](C)CO)C[C@@H]1C,inactive: 0.998
3,C[C@@H]1CCCCO[C@H](CN(C)Cc2ccccc2)[C@@H](C)CN([C@H](C)CO)C(=O)c2cc(NC(=O)CCCCCC(=O)Nc3ccccc3N)ccc2O1,inactive: 1.01
4,COc1ccc(NC(=O)Nc2ccc3c(c2)CC(=O)N([C@H](C)CO)C[C@H](C)[C@@H](CN(C)Cc2ccc(Oc4ccccc4)cc2)O3)cc1,inactive: 1.04
5,COc1ccc(S(=O)(=O)Nc2ccc3c(c2)C(=O)N([C@@H](C)CO)C[C@H](C)[C@@H](CN(C)S(=O)(=O)c2cn(C)cn2)OCCCC[C@H](C)O3)cc1,inactive: 0.994
6,C[C@@H]1CN([C@H](C)CO)C(=O)c2cc(NC(=O)Nc3ccccc3)ccc2O[C@@H](C)CCCCO[C@@H]1CN(C)S(=O)(=O)c1ccc(Cl)cc1,inactive: 1
7,C[C@H](CO)N1C[C@H](C)[C@H](CN(C)Cc2ccc(-c3ccccc3)cc2)Oc2ccc(NS(=O)(=O)c3ccccc3)cc2CC1=O,inactive: 1.04
8,COc1ccc(S(=O)(=O)Nc2cccc3c2O[C@H](CN(C)S(=O)(=O)c2ccccc2)[C@H](C)CN([C@H](C)CO)C3=O)cc1,inactive: 0.986
9,O=C(Cc1nn[nH]n1)NS(=O)(=O)c1ccccc1,inactive: 1.06
10,CC(C)(C)[S@@](=O)N1Cc2cc(C(=O)N[C@@H]3CCN(Cc4ccccc4)C3)nc(-c3cccc(-c4cccnc4)c3)c2[C@H]1CCO,inactive: 1.03
11,Nc1ccn(C2CSC(CO)O2)c(=O)n1 (configuration not stated),inactive: 0.948
12,CC=C(C)C(=O)OC1C(OC(C)=O)C2(CO)C(O)CC3(C)C(=CCC4C5(C)CCC(OC6OC(C(=O)O)C(OC7OC(CO)C(O)C(O)C7O)C(O)C6OC6OC(CO)C(O)C(O)C6O)C(C)(CO)C5CCC43C)C2CC1(C)C (configuration not stated),inactive: 0.74
13,COc1ccc(S(=O)(=O)Nc2ccc3c(c2)C(=O)N([C@H](C)CO)C[C@@H](C)[C@@H](CN(C)S(C)(=O)=O)OCCCC[C@H](C)O3)cc1,inactive: 0.99
14,C[C@H]1CN([C@@H](C)CO)C(=O)Cc2cc(NC(=O)CCC(F)(F)F)ccc2O[C@@H]1CN(C)S(=O)(=O)c1cccs1,inactive: 1
15,CO[C@H]1CN(C)C(=O)c2ccc(NC(=O)Nc3ccccc3)cc2OC[C@H](C)N(C(=O)CN(C)C)C[C@@H]1C,inactive: 0.925
16,CN1C(=O)c2cc(NC(=O)C3CCOCC3)ccc2OC[C@@H]2O[C@H](CC(=O)NCc3ccc4c(c3)OCO4)CC[C@H]21,inactive: 1.05
17,Cc1noc(C)c1NC(=O)N(C)C[C@H]1Oc2ccc(NC(=O)C3CC3)cc2CC(=O)N([C@H](C)CO)C[C@H]1C,inactive: 1
18,C[C@@H]1CN([C@H](C)CO)C(=O)c2cccc(NC(=O)Nc3cccc4ccccc34)c2O[C@@H]1CN(C)Cc1ccc(Oc2ccccc2)cc1,inactive: 0.967
19,C[C@@H]1CCCCO[C@@H](CN(C)C(=O)Nc2ccc3c(c2)OCO3)[C@H](C)CN([C@@H](C)CO)C(=O)c2cc(NC(=O)CCC(F)(F)F)ccc2O1,inactive: 0.991
